From a compilation of properties of binary mixtures (doi:10.2298/jsc190413047v)
Some of these densities may be calculated back from excess volumes.

Test: xn = mol fraction of the nth substance listed

CCCn1cc[n+](C)c1.O=S(=O)([N-]S(=O)(=O)C(F)(F)F)C(F)(F)F + O=C1CCCO1
100 kPa
Details	mass density [kg/m3]
318.15 K, x2 = 0.9001	1204.5
323.15 K, x2 = 0.2002	1427.5

CCCC[n+]1ccn(C)c1.O=S(=O)([N-]S(=O)(=O)C(F)(F)F)C(F)(F)F + O=C1CCCO1
100 kPa, x2 = 0
Details	mass density [kg/m3]
293.15 K	1439.3
308.15 K	1424.6
313.15 K	1419.6
318.15 K	1414.7
323.15 K	1409.7

CCCCCC[n+]1ccn(C)c1.O=S(=O)([N-]S(=O)(=O)C(F)(F)F)C(F)(F)F + O=C1CCCO1
Details	mass density [kg/m3]
313.15 K, 100 kPa, x2 = 0.9493	1156.5

CCCCn1cc[n+](C)c1.FC(F)(F)C(F)(F)[P-](F)(F)(F)(C(F)(F)C(F)(F)F)C(F)(F)C(F)(F)F + CN(C)C=O
mass density [kg/m3], 100 kPa
Details	293.15 K	298.15 K	303.15 K	308.15 K	313.15 K	318.15 K	323.15 K
x1 = 0.0182	1000.5	995.5	990.6	985.6	980.5	975.3	970
x2 = 0.1054	–	1605.2	1599.3	1593.6	–	1581.9	1575.9
x2 = 0.1501	1602	–	1590.5	–	1578.8	1573	–
x2 = 0.2076	1589.6	–	–	1572.2	1566.4	–	1554.6
x2 = 0.244	–	–	1569.8	–	1558.1	1552.3	1546.4
x2 = 0.3073	1565.4	1559.6	1553.8	1548	1542.2	1536.3	1530.5
x2 = 0.403	1536.9	1531.1	1525.3	1519.5	1513.7	1507.8	–
x2 = 0.4976	1502.4	1496.7	1490.9	1485	–	1473.3	1467.4
x2 = 0.5984	1455	1449.3	1443.6	1437.7	1431.9	1426	–
x2 = 0.6983	–	1386.9	–	1375.5	1369.7	1363.9	–
x2 = 0.799	1304.8	1299.2	1293.6	–	1282.3	1276.6	1270.8
x2 = 0.9002	–	1166.3	–	1155.5	–	1144.5	1139
x2 = 0.9336	1111.3	1106.1	1100.9	1095.6	1090.3	1084.9	1079.4

O=C1CCCCCO1 + CCCC[n+]1ccn(C)c1.O=S(=O)([N-]S(=O)(=O)C(F)(F)F)C(F)(F)F
100 kPa
Details	mass density [kg/m3]
293.15 K, x1 = 0.8998	1161.5
298.15 K, x1 = 0.3691	1372.5
303.15 K, x1 = 0.5097	1331.5

O=C1CCCCO1 + CCCC[n+]1ccn(C)c1.O=S(=O)([N-]S(=O)(=O)C(F)(F)F)C(F)(F)F
100 kPa
Details	mass density [kg/m3]
293.15 K, x1 = 1	1108.5
313.15 K, x1 = 0.7012	1281.5

CCCCn1cc[n+](C)c1.FC(F)(F)C(F)(F)[P-](F)(F)(F)(C(F)(F)C(F)(F)F)C(F)(F)C(F)(F)F + CC(=O)N(C)C
mass density [kg/m3], 100 kPa
Details	293.15 K	298.15 K	303.15 K	308.15 K	313.15 K	318.15 K	323.15 K
x1 = 0.0178	984.6	980	975.2	970.4	965.5	960.5	955.5
x2 = 0.0592	1618.8	–	1607	1601.2	1595.3	1589.4	1583.4
x2 = 0.0907	1611.9	1605.9	1600.2	1594.3	1588.5	1582.5	1576.5
x2 = 0.1412	–	–	1588.6	1582.7	1576.8	1570.9	1564.8
x2 = 0.1896	–	1582.2	1576.7	1570.7	1564.8	1558.9	1552.9
x2 = 0.301	1556.2	–	1545.2	–	1533.3	1527.4	1521.5
x2 = 0.3961	1523.6	1518.3	–	1506.7	1500.8	1495.1	1489.1
x2 = 0.4456	1504	1498.8	1493	1487.2	1481.3	1475.6	1469.8
x2 = 0.4959	1481.9	–	1470.9	1465.1	1459.3	1453.6	–
x2 = 0.6005	–	1421.5	1416	1410.4	–	1398.8	1393.2
x2 = 0.6994	1359.9	–	1349	1343.5	1337.9	1332.1	1326.6
x2 = 0.8063	1262	1256.7	–	1246	1240.6	1235.1	–
x2 = 0.8993	1141.4	1136.4	1131.3	1126.1	–	1115.6	1110.3
x2 = 0.9329	1085.4	–	1075.5	1070.4	–	–	1054.9

O=C1CCCO1 + CCCCCCCCn1cc[n+](C)c1.O=S(=O)([N-]S(=O)(=O)C(F)(F)F)C(F)(F)F
Details	mass density [kg/m3]
293.15 K, 100 kPa, x1 = 1	1129.5

CCCC[N+]1(C)CCCC1.FC(F)(F)C(F)(F)[P-](F)(F)(F)(C(F)(F)C(F)(F)F)C(F)(F)C(F)(F)F + CNC=O
mass density [kg/m3], 101 kPa
Details	x2 = 0.0971	x2 = 0.1587	x2 = 0.4036	x2 = 0.962
298.15 K	1571.5	–	–	–
303.15 K	–	1557.5	1513.5	1105.5

CCCn1cc[n+](C)c1C.O=S(=O)([N-]S(=O)(=O)C(F)(F)F)C(F)(F)F + O=C1CCCO1
Details	mass density [kg/m3]
318.15 K, 100 kPa, x2 = 0.8508	1235.5

CCCC[N+]1(C)CCCC1.FC(F)(F)C(F)(F)[P-](F)(F)(F)(C(F)(F)C(F)(F)F)C(F)(F)C(F)(F)F + CC(=O)N(C)C
101 kPa
Details	mass density [kg/m3]
298.15 K, x2 = 0.1531	1551.5
303.15 K, x1 = 0.0182	974.1
313.15 K, x2 = 0.2922	1498.5
313.15 K, x2 = 0.3952	1465.5
318.15 K, x2 = 0.901	1103.5
323.15 K, x2 = 0.4988	1414.5

Cn1cc[n+](C)c1.O=S(=O)([N-]S(=O)(=O)C(F)(F)F)C(F)(F)F + O=C1CCCO1
100 kPa
Details	mass density [kg/m3]
313.15 K, x2 = 0.5002	1451.5
323.15 K, x2 = 0.7009	1357.5

CCCC[n+]1ccn(CC)c1.[Br-] + O
mass density [kg/m3], 100 kPa
Details	293.15 K	298.15 K	303.15 K	308.15 K	313.15 K	318.15 K	323.15 K
x2 = 0	–	1259.4	1256	1252.5	1248.9	1245.5	1241.9
x2 = 0.1059	1260.8	1257.2	–	1250.1	1246.6	1243	1239.4
x2 = 0.2103	1258.3	1254.8	1251.3	1247.7	1244.2	1240.6	1237.1
x2 = 0.235	1257.7	1254.2	1250.7	1247.1	1243.6	1240.1	1236.5
x2 = 0.329	1254.8	1251.3	1247.9	1244.4	1241	–	1233.9
x2 = 0.4253	1250.9	–	–	1240.5	1237.1	1233.7	–
x2 = 0.4747	1248.2	1244.6	1241.3	1237.9	1234.4	1230.9	1227.4
x2 = 0.53	1244.5	–	1237.5	–	–	1227	1223.5
x2 = 0.6008	1238.1	–	1231.1	–	1224.1	1220.5	1216.9
x2 = 0.6599	–	1227.3	1223.7	1220.2	1216.5	1212.9	1209.4
x2 = 0.7048	1223.7	1220.1	1216.5	–	1209.2	1205.4	1201.7
x2 = 0.7965	–	1197.8	1194	1190.2	1186.4	–	1178.9
x2 = 0.9011	1147.3	1144.6	1141.1	1137.5	–	–	1126.7
x2 = 0.9492	–	1095.7	1092.8	–	1086.7	1083.5	–

CCNC=O + CCCC[N+]1(C)CCCC1.FC(F)(F)C(F)(F)[P-](F)(F)(F)(C(F)(F)C(F)(F)F)C(F)(F)C(F)(F)F
mass density [kg/m3], 101 kPa
Details	x1 = 0.4473	x1 = 0.8492	x1 = 0.9247
298.15 K	1484.5	–	–
303.15 K	–	1230.5	1119.5

CC1CCC(=O)O1 (configuration not stated) + CCCC[n+]1ccn(C)c1.O=S(=O)([N-]S(=O)(=O)C(F)(F)F)C(F)(F)F
100 kPa
Details	mass density [kg/m3]
308.15 K, x1 = 0.8002	1208.5
318.15 K, x1 = 0.9495	1084.5

O=C1CCCO1 + CCCCCC[n+]1ccn(C)c1.O=S(=O)([N-]S(=O)(=O)C(F)(F)F)C(F)(F)F
Details	mass density [kg/m3]
293.15 K, 100 kPa, x1 = 1	1129.5

CCCCN(C=O)CCCC + CCCC[N+]1(C)CCCC1.FC(F)(F)C(F)(F)[P-](F)(F)(F)(C(F)(F)C(F)(F)F)C(F)(F)C(F)(F)F
101 kPa
Details	mass density [kg/m3]
293.15 K, x1 = 0.0989	1548.5
293.15 K, x1 = 0.2246	1494.5
298.15 K, x1 = 0.5997	1276.5
308.15 K, x1 = 0.3201	1433.5
313.15 K, x1 = 0.7001	1185.5
313.15 K, x1 = 0.8502	1046.5
323.15 K, x1 = 0.3201	1417.5
323.15 K, x1 = 0.4007	1375.5

O + CCCC[n+]1ccn(CC)c1.[Br-]
Details	mass density [kg/m3]
323.15 K, 100 kPa, x1 = 1	988

O=C1CCCO1 + CCCC[n+]1ccn(C)c1.O=S(=O)([N-]S(=O)(=O)C(F)(F)F)C(F)(F)F
mass density [kg/m3], 100 kPa
Details	293.15 K	298.15 K	303.15 K	308.15 K	313.15 K	318.15 K	323.15 K
x1 = 0.0523	1435.2	1430.2	1425.3	1420.5	1415.6	1410.6	1405.6
x1 = 0.0933	1431.7	–	1421.8	1417	–	1407.1	1402.1
x1 = 0.1974	1421.5	1416.5	1411.6	1406.8	1401.8	1396.9	–
x1 = 0.3036	1408.8	1403.9	–	1394.1	1389.1	1384.1	–
x1 = 0.4025	1394.3	1389.4	1384.4	1379.6	–	1369.6	1364.5
x1 = 0.4964	–	1372.4	1367.5	–	1357.6	1352.6	1347.5
x1 = 0.6003	1353.5	1348.6	–	1338.7	–	–	1323.6
x1 = 0.6489	1339.9	1335	1330	1325.1	1320.1	1315	1309.9
x1 = 0.7001	–	1318.4	1313.4	–	–	1298.4	1293.3
x1 = 0.7987	1282.7	1277.8	1272.8	1267.8	1262.8	1257.7	1252.6
x1 = 0.9046	1219.1	–	1209.2	1204.2	1199.1	1194	1188.8
x1 = 0.924	1204.1	–	1194.2	1189.2	1184.1	1179	1173.8
x1 = 0.9493	1182.3	1177.3	1172.3	1167.3	–	1157.1	1151.9
x1 = 1	1129.2	1124.3	1119.3	–	–	–	–
x2 = 0.0151	–	1141.6	1136.6	1131.6	–	1121.4	1116.2
